The source of these data is paper PMC3084262.

By UniProt entry, the sequences of proteins in these tests, tags left out.
UniProt P14922: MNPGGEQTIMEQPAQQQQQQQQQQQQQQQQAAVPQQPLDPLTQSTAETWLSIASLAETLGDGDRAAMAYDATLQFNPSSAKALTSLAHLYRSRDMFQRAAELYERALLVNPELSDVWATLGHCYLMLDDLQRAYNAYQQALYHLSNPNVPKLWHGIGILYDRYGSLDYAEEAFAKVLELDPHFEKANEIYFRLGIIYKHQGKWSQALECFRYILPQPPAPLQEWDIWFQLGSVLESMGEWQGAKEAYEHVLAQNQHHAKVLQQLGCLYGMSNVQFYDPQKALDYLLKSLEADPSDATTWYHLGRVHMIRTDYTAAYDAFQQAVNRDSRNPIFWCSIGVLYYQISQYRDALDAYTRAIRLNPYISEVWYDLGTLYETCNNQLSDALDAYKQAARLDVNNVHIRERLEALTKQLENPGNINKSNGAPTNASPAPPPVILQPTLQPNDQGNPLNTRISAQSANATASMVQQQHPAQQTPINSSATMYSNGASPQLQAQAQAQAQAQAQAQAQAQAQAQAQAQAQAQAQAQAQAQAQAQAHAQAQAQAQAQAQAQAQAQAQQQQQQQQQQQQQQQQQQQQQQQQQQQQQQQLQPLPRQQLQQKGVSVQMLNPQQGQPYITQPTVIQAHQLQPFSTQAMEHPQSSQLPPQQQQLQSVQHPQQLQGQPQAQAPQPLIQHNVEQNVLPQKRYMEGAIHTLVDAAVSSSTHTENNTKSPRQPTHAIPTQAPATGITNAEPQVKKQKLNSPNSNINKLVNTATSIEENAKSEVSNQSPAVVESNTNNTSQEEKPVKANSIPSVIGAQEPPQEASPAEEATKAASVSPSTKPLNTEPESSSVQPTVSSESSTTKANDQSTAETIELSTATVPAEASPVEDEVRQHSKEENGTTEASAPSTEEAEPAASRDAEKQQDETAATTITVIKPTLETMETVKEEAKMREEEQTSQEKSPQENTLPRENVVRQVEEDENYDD
UniProt P38889: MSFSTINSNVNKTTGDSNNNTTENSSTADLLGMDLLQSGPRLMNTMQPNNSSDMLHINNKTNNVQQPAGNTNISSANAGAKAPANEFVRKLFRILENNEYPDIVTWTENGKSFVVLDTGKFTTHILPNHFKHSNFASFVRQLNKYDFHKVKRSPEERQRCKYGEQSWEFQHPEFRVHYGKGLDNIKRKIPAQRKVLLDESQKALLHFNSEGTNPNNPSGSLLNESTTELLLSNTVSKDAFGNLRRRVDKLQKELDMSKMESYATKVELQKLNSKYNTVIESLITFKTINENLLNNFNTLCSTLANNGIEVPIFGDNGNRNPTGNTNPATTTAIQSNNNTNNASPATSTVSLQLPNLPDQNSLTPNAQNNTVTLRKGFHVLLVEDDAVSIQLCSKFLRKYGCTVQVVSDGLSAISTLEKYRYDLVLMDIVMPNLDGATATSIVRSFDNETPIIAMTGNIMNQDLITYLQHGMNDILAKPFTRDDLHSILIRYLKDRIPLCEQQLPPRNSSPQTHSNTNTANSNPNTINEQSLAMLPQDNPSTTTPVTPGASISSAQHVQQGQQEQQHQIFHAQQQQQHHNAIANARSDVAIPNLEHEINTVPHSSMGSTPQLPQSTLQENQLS

Assay [1] has as its target Ssn6 (S. cerevisiae (endogenous in yeast cells)) (UniProt P14922). Put plainly: co-IP; first experiment (Figure 4A): anti-Ssn6 antibody IP from cleared yeast lysates of strains with Myc-tagged proteins, anti-Myc blot; Co-IP buffer 50 mM Tris-Cl pH 7.4, 250 mM NaCl, 5 mM EDTA, 0.1% NP40; last wash 500 mM NaCl; 4°C.
The target is the same in assay [2]. Put plainly: co-IP; second set (Figure 4B, longer exposure in Figure S2): anti-Ssn6 antibody IP from cleared yeast lysates of strains with Tup1-HA and a Myc-tagged protein, anti-HA and anti-Myc blots; Co-IP buffer 50 mM Tris-Cl pH 7.4, 250 mM NaCl, 5 mM EDTA, 0.1% NP40; last wash 500 mM NaCl; 4°C.
Assay [3] has as its target Tup1-HA (S. cerevisiae) (UniProt P16649). Put plainly: co-IP; third experiment (Figure 4C): anti-HA antibody IP of Tup1-HA from cleared yeast lysates of strains with a Myc-tagged protein, anti-Ssn6 and anti-Myc blots; Co-IP buffer 50 mM Tris-Cl pH 7.4, 250 mM NaCl, 5 mM EDTA, 0.1% NP40; last wash 500 mM NaCl; 4°C.
The target in assay [4] is Ssn6 (S. cerevisiae (endogenous in yeast cells)) (UniProt P14922). The experiment in a line: co-IP; Figure 4D: anti-Ssn6 antibody IP from yeast extract treated with DNAse I (100 U/µl) before the IP; EDTA omitted from the Co-IP buffer, then added to 10 mM to stop the reaction; 4°C.
Assay [5] concerns the target Tup1-HA (S. cerevisiae) (UniProt P16649). The experiment in a line: co-IP; third experiment (Figure 4C): anti-HA antibody IP of Tup1-HA from cleared yeast lysates of strains with a Myc-tagged protein, anti-Ssn6 and anti-Myc blots; Co-IP buffer 50 mM Tris-Cl pH 7.4, 250 mM NaCl, 5 mM EDTA, 0.1% NP40; last wash 500 mM NaCl; 4°C. The source holds these as a separate data set.

The target of assay [6] is T1, Tup1-HA (S. cerevisiae), P16649.
T1 chain: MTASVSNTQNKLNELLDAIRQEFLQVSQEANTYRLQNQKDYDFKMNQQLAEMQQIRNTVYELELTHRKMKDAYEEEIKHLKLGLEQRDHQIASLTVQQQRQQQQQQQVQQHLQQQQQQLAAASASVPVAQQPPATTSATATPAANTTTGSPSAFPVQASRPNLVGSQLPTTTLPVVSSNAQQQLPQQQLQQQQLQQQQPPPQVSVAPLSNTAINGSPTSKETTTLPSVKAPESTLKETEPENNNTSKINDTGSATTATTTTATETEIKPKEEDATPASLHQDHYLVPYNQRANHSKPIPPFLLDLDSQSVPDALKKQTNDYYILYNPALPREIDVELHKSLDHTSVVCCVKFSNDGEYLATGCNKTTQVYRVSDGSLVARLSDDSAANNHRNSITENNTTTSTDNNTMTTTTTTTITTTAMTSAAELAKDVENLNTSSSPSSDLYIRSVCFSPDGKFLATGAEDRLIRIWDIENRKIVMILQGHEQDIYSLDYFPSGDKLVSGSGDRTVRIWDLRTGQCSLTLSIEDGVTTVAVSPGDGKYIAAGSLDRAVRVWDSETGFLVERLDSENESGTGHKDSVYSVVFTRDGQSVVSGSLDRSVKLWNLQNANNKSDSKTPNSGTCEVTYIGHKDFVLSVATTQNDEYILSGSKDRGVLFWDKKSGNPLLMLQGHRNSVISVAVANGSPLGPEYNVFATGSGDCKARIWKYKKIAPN
The assay is described as above. The following applies: remark: other sources report otherwise.

Like-named read-outs stand apart in the source and are kept apart here. No constants are given. Whether binding was seen depends on the method and setting. Binding seen in cells or lysates may run through a third protein. Some results given as binding are weak or reduced against the parent protein; the word gives no strength. For some assays here: Sequences can lack the tags named with a protein.

Take Tup1-MYC (from UniProt P16649 1-713): in assay [1], the binding result is on record as “binds”.

Turning to Tup1-HA (from UniProt P16649 1-713), in assay [2], the binding entry is reported as “binds”.

With Ssn6 (from UniProt P14922 1-966), in assay [3], the binding result is on record as “binds”.

“Myc-tagged Skn7 (from UniProt P38889 1-622)”: the binding entry in assay [3], in assay [1], in assay [4] and in assay [2] was “binds” throughout.

B1: Myc-tagged Nrg1 (protein, UniProt Q03125 1-231)
chain: MFYPYNYSNLNVSTMPALPGISAFDGMQDEENVEISPERKYQTLLPVLTNSHVVENELKHKLNKTAFDFRYQTKSENGSEKWEPKYLITPNLQTRSVSFDNSSVQYNSDSSEKSSLSQLTCNSSIIQQPENGIVSNDAYNKMANSRYSLKTRKQRTDPRNTLSDEEDLEQRRKYICKICARGFTTSGHLARHNRIHTGEKNHCCPYKGCTQRFSRHDNCLQHYRTHLKKGQ
Regarding B1, the binding entry in assay [5] was “binds weakly”.

B2: Myc-tagged Yap6 (protein, UniProt Q03935 1-383)
chain: MQNPPLIRPDMYNQGSSSMATYNASEKNLNEHPSPQIAQPSTSQKLPYRINPTTTNGDTDISVNSNPIQPPLPNLMHLSGPSDYRSMHQSPIHPSYIIPPHSNERKQSASYNRPQNAHVSIQPSVVFPPKSYSISYAPYQINPPLPNGLPNQSISLNKEYIAEEQLSTLPSRNTSVTTAPPSFQNSADTAKNSADNNDNNDNVTKPVPDKDTQLISSSGKTLRNTRRAAQNRTAQKAFRQRKEKYIKNLEQKSKIFDDLLAENNNFKSLNDSLRNDNNILIAQHEAIRNAITMLRSEYDVLCNENNMLKNENSIIKNEHNMSRNENENLKLENKRFHAEYIRMIEDIENTKRKEQEQRDEIEQLKKKIRSLEEIVGRHSDSAT
For B2, the binding result in assay [1] was “binds”; in assay [4] it was “binds”; in assay [2] it was “binds”; in assay [5] it was “binds weakly”.

B3: Myc-tagged Sko1, Q02100 1-647 (protein)
chain: MSSEERSRQPSTVSTFDLEPNPFEQSFASSKKALSLPGTISHPSLPKELSRNNSTSTITQHSQRSTHSLNSIPEENGNSTVTDNSNHNDVKKDSPSFLPGQQRPTIISPPILTPGGSKRLPPLLLSPSILYQANSTTNPSQNSHSVSVSNSNPSAIGVSSTSGSLYPNSSSPSGTSLIRQPRNSNVTTSNSGNGFPTNDSQMPGFLLNLSKSGLTPNESNIRTGLTPGILTQSYNYPVLPSINKNTITGSKNVNKSVTVNGSIENHPHVNIMHPTVNGTPLTPGLSSLLNLPSTGVLANPVFKSTPTTNTTDGTVNNSISNSNFSPNTSTKAAVKMDNPAEFNAIEHSAHNHKENENLTTQIENNDQFNNKTRKRKRRMSSTSSTSKASRKNSISRKNSAVTTAPAQKDDVENNKISNNVTLDENEEQERKRKEFLERNRVAASKFRKRKKEYIKKIENDLQFYESEYDDLTQVIGKLCGIIPSSSSNSQFNVNVSTPSSSSPPSTSLIALLESSISRSDYSSAMSVLSNMKQLICETNFYRRGGKNPRDDMDGQEDSFNKDTNVVKSENAGYPSVNSRPIILDKKYSLNSGANISKSNTTTNNVGNSAQNIINSCYSVTNPLVINANSDTHDTNKHDVLSTLPHNN
As to B3, the binding result in assay [6] is “no binding”.

B4: Myc-tagged Cin5 (protein, UniProt P40917 1-295)
chain: MLMQIKMDNHPFNFQPILASHSMTRDSTKPKKMTDTAFVPSPPVGFIKEENKADLHTISVVASNVTLPQIQLPKIATLEEPGYESRTGSLTDLSGRRNSVNIGALCEDVPNTAGPHIARPVTINNLIPPSLPRLNTYQLRPQLSDTHLNCHFNSNPYTTASHAPFESSYTTASTFTSQPAASYFPSNSTPATRKNSATTNLPSEERRRVSVSLSEQVFNEGERYNNDGQLIGKTGKPLRNTKRAAQNRSAQKAFRQRREKYIKNLEEKSKLFDGLMKENSELKKMIESLKSKLKE
As for B4, the binding result in assay [5] is given as “binds weakly”.

B5: Myc-tagged Phd1 (protein, UniProt P36093 1-366)
chain: MYHVPEMRLHYPLVNTQSNAAITPTRSYDNTLPSFNELSHQSTINLPFVQRETPNAYANVAQLATSPTQAKSGYYCRYYAVPFPTYPQQPQSPYQQAVLPYATIPNSNFQPSSFPVMAVMPPEVQFDGSFLNTLHPHTELPPIIQNTNDTSVARPNNLKSIAAASPTVTATTRTPGVSSTSVLKPRVITTMWEDENTICYQVEANGISVVRRADNNMINGTKLLNVTKMTRGRRDGILRSEKVREVVKIGSMHLKGVWIPFERAYILAQREQILDHLYPLFVKDIESIVDARKPSNKASLTPKSSPAPIKQEPSDNKHEIATEIKPKSIDALSNGASTQGAGELPHLKINHIDTEAQTSRAKNELS
In the case of B5, the binding result in assay [1] was “binds weakly”; in assay [4], “binds”; in assay [2] it was “binds”; in assay [5], “binds weakly”.

B6: Myc-tagged Hap3 (protein, UniProt P13434 1-144)
chain: MNTNESEHVSTSPEDTQENGGNASSSGSLQQISTLREQDRWLPINNVARLMKNTLPPSAKVSKDAKECMQECVSELISFVTSEASDRCAADKRKTINGEDILISLHALGFENYAEVLKIYLAKYRQQQALKNQLMYEQDDEEVP
In the case of B6, the binding entry in assay [1] and in assay [2] was “no binding” in each case.
